# Assay results from the supplement of paper PMC8728848.
# Some of the results follow.
# Assays:
# Assay in all cases: glycan array binding signal (z-score within array); higher = stronger binding
# Settings in all cases: glycan notation: IUPAC condensed, linker removed
# Fuc(a1-2)Gal = molecular target: Fuc(a1-2)Gal
# In short: (§1)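 The binding signal is a Z-score computed within each array. Data were drawn from 3228 arrays in the Consortium for Functional Glycomics database, restricted to those with a known protein sequence. Scores were averaged over arrays of the same protein sequence at different concentrations or buffers, and over linkers, and negative values can be taken as non-binding.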
# Fuc(a1-2)Gal(b1-3)GalNAc = molecular target: Fuc(a1-2)Gal(b1-3)GalNAc
# In short: as §1
# [1] = molecular target: Fuc(a1-2)Gal(b1-3)GalNAc(a1-3)[Fuc(a1-2)]Gal(b1-4)Glc
# In short: as §1
# [2] = molecular target: Fuc(a1-2)Gal(b1-3)GalNAc(a1-3)[Fuc(a1-2)]Gal(b1-4)GlcNAc
# In short: as §1
# [3] = molecular target: Fuc(a1-2)Gal(b1-3)GalNAc(b1-3)Gal
# In short: as §1
# [4] = molecular target: Fuc(a1-2)Gal(b1-3)GalNAc(b1-3)Gal(a1-4)Gal(b1-4)Glc
# In short: as §1
# [5] = molecular target: Fuc(a1-2)Gal(b1-3)GalNAc(b1-4)[Neu5Ac(a2-3)]Gal(b1-4)Glc
# In short: as §1
# Fuc(a1-2)Gal(b1-3)GlcNAc = molecular target: Fuc(a1-2)Gal(b1-3)GlcNAc
# In short: as §1
# [6] = molecular target: Fuc(a1-2)Gal(b1-3)GlcNAc(b1-2)Man(a1-3)[Fuc(a1-2)Gal(b1-3)GlcNAc(b1-2)Man(a1-6)]Man(b1-4)GlcNAc(b1-4)GlcNAc
# In short: as §1
# [7] = molecular target: Fuc(a1-2)Gal(b1-3)GlcNAc(b1-2)Man(a1-3)[Fuc(a1-2)Gal(b1-3)GlcNAc(b1-2)Man(a1-6)]Man(b1-4)GlcNAc(b1-4)[Fuc(a1-6)]GlcNAc
# In short: as §1
# [8] = molecular target: Fuc(a1-2)Gal(b1-3)GlcNAc(b1-3)Gal(b1-4)Glc
# In short: as §1
# [9] = molecular target: Fuc(a1-2)Gal(b1-3)GlcNAc(b1-3)GalNAc
# In short: as §1
# [10] = molecular target: Fuc(a1-2)Gal(b1-3)GlcNAc(b1-3)[Fuc(a1-2)Gal(b1-3)GlcNAc(b1-6)]GalNAc
# In short: as §1
# [11] = molecular target: Fuc(a1-2)Gal(b1-3)GlcNAc(b1-3)[Gal(b1-4)GlcNAc(b1-6)]Gal(b1-4)Glc
# In short: as §1
# [12] = molecular target: Fuc(a1-2)Gal(b1-3)GlcNAc(b1-3)[Neu5Ac(a2-6)Gal(b1-4)GlcNAc(b1-6)]Gal(b1-4)Glc
# In short: as §1
# [13] = molecular target: Fuc(a1-2)Gal(b1-3)GlcNAc6S
# In short: as §1
# [14] = molecular target: Fuc(a1-2)Gal(b1-3)[Fuc(a1-4)]GlcNAc
# In short: as §1
# [15] = molecular target: Fuc(a1-2)Gal(b1-3)[Fuc(a1-4)]GlcNAc(b1-2)Man(a1-3)[Fuc(a1-2)Gal(b1-3)[Fuc(a1-4)]GlcNAc(b1-2)Man(a1-3)]Man(b1-4)GlcNAc(b1-4)GlcNAc
# In short: as §1
# [16] = molecular target: Fuc(a1-2)Gal(b1-3)[Fuc(a1-4)]GlcNAc(b1-2)Man(a1-3)[Fuc(a1-2)Gal(b1-3)[Fuc(a1-4)]GlcNAc(b1-2)Man(a1-6)]Man(b1-4)GlcNAc(b1-4)[Fuc(a1-6)]GlcNAc(b1-4)[Fuc(a1-6)]GlcNAc
# In short: as §1
# [17] = molecular target: Fuc(a1-2)Gal(b1-3)[Fuc(a1-4)]GlcNAc(b1-3)[Fuc(a1-3)[Gal(b1-4)]GlcNAc(b1-6)]Gal(b1-4)Glc
# In short: as §1
# [18] = molecular target: Fuc(a1-2)Gal(b1-3)[Fuc(a1-4)]GlcNAc(b1-3)[Gal(b1-4)GlcNAc(b1-6)]Gal(b1-4)Glc
# In short: as §1
# [19] = molecular target: Fuc(a1-2)Gal(b1-4)Fuc(a1-3)]GlcNAc(b1-2)Man(a1-3)[Fuc(a1-2)Gal(b1-4)[Fuc(a1-3)]GlcNAc(b1-2)Man(a1-6)]Man(b1-4)GlcNAc(b1-4)GlcNAc
# In short: as §1
# Fuc(a1-2)Gal(b1-4)Glc = molecular target: Fuc(a1-2)Gal(b1-4)Glc
# In short: as §1
# Fuc(a1-2)Gal(b1-4)Glc6S = molecular target: Fuc(a1-2)Gal(b1-4)Glc6S
# In short: as §1
# Fuc(a1-2)Gal(b1-4)GlcNAc = molecular target: Fuc(a1-2)Gal(b1-4)GlcNAc
# In short: as §1
# [20] = molecular target: Fuc(a1-2)Gal(b1-4)GlcNAc(b1-2)Man
# In short: as §1
# [21] = molecular target: Fuc(a1-2)Gal(b1-4)GlcNAc(b1-2)Man(a1-3)[Fuc(a1-2)Gal(b1-4)GlcNAc(b1-2)Man(a1-6)]Man(b1-4)GlcNAc(b1-4)GlcNAc
# In short: as §1
# [22] = molecular target: Fuc(a1-2)Gal(b1-4)GlcNAc(b1-2)Man(a1-3)[Fuc(a1-2)Gal(b1-4)GlcNAc(b1-2)Man(a1-6)]Man(b1-4)GlcNAc(b1-4)[Fuc(a1-6)]GlcNAc
# In short: as §1
# [23] = molecular target: Fuc(a1-2)Gal(b1-4)GlcNAc(b1-2)[Fuc(a1-2)Gal(b1-4)GlcNAc(b1-4)]Man(a1-3)[Fuc(a1-2)Gal(b1-4)GlcNAc(b1-2)Man(a1-6)]Man(b1-4)GlcNAc(b1-4)GlcNAc
# In short: as §1
# [24] = molecular target: Fuc(a1-2)Gal(b1-4)GlcNAc(b1-3)Gal(b1-4)GlcNAc
# In short: as §1
binder,measurement,setting,value
Threefoil (Haloarcula marismortui) (protein) GSSHHHHHHHHHHSSGLVPRGSHMGDGYYKLVARHSGKALDVENASTSDGANVIQYSYSGGDNQQWRLVDLGDGYYKLVARHSGKALDVENASTSDGANVIQYSYSGGDNQQWRLVDLGDGYYKLVARHSGKALDVENASTSDGANVIQYSYSGGDNQQWRLVDL,glycan array binding signal (z-score),Fuc(a1-2)Gal,-0.057
same,glycan array binding signal (z-score),Fuc(a1-2)Gal(b1-3)GalNAc,-0.158
same,glycan array binding signal (z-score),[1],-0.119
same,glycan array binding signal (z-score),[2],-0.165
same,glycan array binding signal (z-score),[3],-0.202
same,glycan array binding signal (z-score),[4],-0.212
same,glycan array binding signal (z-score),[5],-0.191
same,glycan array binding signal (z-score),Fuc(a1-2)Gal(b1-3)GlcNAc,-0.251
same,glycan array binding signal (z-score),[6],-0.094
same,glycan array binding signal (z-score),[7],0.056
same,glycan array binding signal (z-score),[8],-0.192
same,glycan array binding signal (z-score),[9],-0.292
same,glycan array binding signal (z-score),[10],-0.126
same,glycan array binding signal (z-score),[11],0
same,glycan array binding signal (z-score),[12],-0.187
same,glycan array binding signal (z-score),[13],-0.132
same,glycan array binding signal (z-score),[14],-0.203
same,glycan array binding signal (z-score),[15],-0.191
same,glycan array binding signal (z-score),[16],-0.217
same,glycan array binding signal (z-score),[17],-0.256
same,glycan array binding signal (z-score),[18],-0.143
same,glycan array binding signal (z-score),[19],-0.174
same,glycan array binding signal (z-score),Fuc(a1-2)Gal(b1-4)Glc,-0.107
same,glycan array binding signal (z-score),Fuc(a1-2)Gal(b1-4)Glc6S,-0.212
same,glycan array binding signal (z-score),Fuc(a1-2)Gal(b1-4)GlcNAc,-0.156
same,glycan array binding signal (z-score),[20],-0.199
same,glycan array binding signal (z-score),[21],-0.082
same,glycan array binding signal (z-score),[22],-0.202
same,glycan array binding signal (z-score),[23],-0.182
same,glycan array binding signal (z-score),[24],-0.045
